Results on 24 compounds are retold here after the supplement of paper PMC4604168 (melanoma cell lines).

The list shows a part of the results. Single values are uncertain, as repeats are few or missing.
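Note: cells treated in 1,536-well plates, then fixed and DAPI-stained, with nuclei counted from automated high-throughput microscope images.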

The test system of the assay is WM115. Kind of assay: cell count relative to DMSO control; melanoma cells; higher = more viable cells. The conditions noted are these: library dose: standard library concentration; 72 h.
The compound `N#CC[C@H](C1CCCC1)n1cc(-c2ncnc3[nH]ccc23)cn1` [ruxolitinib] + Cn1cncc1[C@@](N)(c1ccc(Cl)cc1)c1ccc2c(c1)c(-c1cccc(Cl)c1)cc(=O)n2C [tipifarnib] (first compound 5 µM, partner dose 0.05 µM) showed a cell count of 66.4%.

Take `CC[C@]1(O)C[C@H]2CN(CCc3c([nH]c4ccccc34)[C@@](C(=O)OC)(c3cc4c(cc3OC)N(C=O)[C@H]3[C@@](O)(C(=O)OC)[C@H](OC(C)=O)[C@]5(CC)C=CCN6CC[C@]43[C@@H]65)C2)C1` [vincristine] + Cc1cc(Nc2cc(N3CCN(C)CC3)nc(/C=C/c3ccccc3)n2)n[nH]1 [ENMD2076] (first compound 0.0005 µM, partner dose 0.2 µM): the cell count was found to be 47.1%.

In turn, `Cc1cc(Nc2cc(N3CCN(C)CC3)nc(Sc3ccc(NC(=O)C4CC4)cc3)n2)n[nH]1` [Tozasertib] + CC(C)CCN1c2nc(Nc3cc(F)c(O)c(F)c3)ncc2N(C)C(=O)C1C [BID1870] (first compound 0.03 µM, partner dose 1 µM) displayed a cell count of 49%.

Take `CC[C@]1(O)C[C@H]2CN(CCc3c([nH]c4ccccc34)[C@@](C(=O)OC)(c3cc4c(cc3OC)N(C=O)[C@H]3[C@@](O)(C(=O)OC)[C@H](OC(C)=O)[C@]5(CC)C=CCN6CC[C@]43[C@@H]65)C2)C1` [vincristine] + CN(NC(=O)CC(=O)NN(C)C(=S)c1ccccc1)C(=S)c1ccccc1 [STA4783] (first compound 0.0005 µM, partner dose 0.03 µM): the cell count was found to be 21.1%.

`CC[C@]1(O)C[C@H]2CN(CCc3c([nH]c4ccccc34)[C@@](C(=O)OC)(c3cc4c(cc3OC)N(C=O)[C@H]3[C@@](O)(C(=O)OC)[C@H](OC(C)=O)[C@]5(CC)C=CCN6CC[C@]43[C@@H]65)C2)C1` [vincristine] + CO[C@@H]1[C@H](N(C)C(=O)c2ccccc2)C[C@H]2O[C@]1(C)n1c3ccccc3c3c4c(c5c6ccccc6n2c5c31)C(=O)NC4 [Midostaurin] (first compound 0.0005 µM, partner dose 0.4 µM) gave a cell count of 46.6%.

`N#CC[C@H](C1CCCC1)n1cc(-c2ncnc3[nH]ccc23)cn1` [ruxolitinib] + CN1CCN(c2ccc3nc(-c4c(N)c5c(F)cccc5[nH]c4=O)[nH]c3c2)CC1 [Dovitinib] (first compound 5 µM, partner dose 0.5 µM): the cell count worked out at 77.6%.

On to `N#CC[C@H](C1CCCC1)n1cc(-c2ncnc3[nH]ccc23)cn1` [ruxolitinib] + CN(C)S(=O)(=O)c1ccc2c(c1)/C(=C/c1cc3c([nH]1)CCCC3)C(=O)N2 [SU6656] (first compound 5 µM, partner dose 2 µM), for which the cell count worked out at 33.3%.

`Cc1cc(Nc2cc(N3CCN(C)CC3)nc(Sc3ccc(NC(=O)C4CC4)cc3)n2)n[nH]1` [Tozasertib] + O=C(Nc1cccc(Cl)c1)Nc1ncc(CCNc2ncnc3ccsc23)s1 [SNS314] (first compound 0.03 µM, partner dose 0.004 µM): the cell count stood at 32.5%.

`CC[C@]1(O)C[C@H]2CN(CCc3c([nH]c4ccccc34)[C@@](C(=O)OC)(c3cc4c(cc3OC)N(C=O)[C@H]3[C@@](O)(C(=O)OC)[C@H](OC(C)=O)[C@]5(CC)C=CCN6CC[C@]43[C@@H]65)C2)C1` [vincristine] + COc1ccc(Cl)c(Nc2nc3ccccc3nc2NS(=O)(=O)c2cccc(NC(=O)C(C)(C)N)c2)c1 [XL147] (first compound 0.0005 µM, partner dose 4 µM) yielded a cell count of 49.8%.

In turn, `CC[C@]1(O)C[C@H]2CN(CCc3c([nH]c4ccccc34)[C@@](C(=O)OC)(c3cc4c(cc3OC)N(C=O)[C@H]3[C@@](O)(C(=O)OC)[C@H](OC(C)=O)[C@]5(CC)C=CCN6CC[C@]43[C@@H]65)C2)C1` [vincristine] + CO[C@H]1C[C@@H]2CC[C@@H](C)[C@@](O)(O2)C(=O)C(=O)N2CCCC[C@H]2C(=O)O[C@H]([C@H](C)C[C@@H]2CC[C@@H](OCCO)[C@H](OC)C2)CC(=O)[C@H](C)/C=C(\C)[C@@H](O)[C@@H](OC)C(=O)[C@H](C)C[C@H](C)/C=C/C=C/C=C/1C [everolimus] (first compound 0.0005 µM, partner dose 0.1 µM) showed a cell count of 48.5%.

`N#CC[C@H](C1CCCC1)n1cc(-c2ncnc3[nH]ccc23)cn1` [ruxolitinib] + c1cc(-c2cnn3cc(-c4ccc(OCCN5CCCCC5)cc4)cnc23)ccn1 [Dorsomorphin] (first compound 5 µM, partner dose 2 µM) registered a cell count of 61.3%.

As for `Cc1cc(Nc2cc(N3CCN(C)CC3)nc(Sc3ccc(NC(=O)C4CC4)cc3)n2)n[nH]1` [Tozasertib] + C[C@@H]1CCN(C(=O)CC#N)C[C@@H]1N(C)c1ncnc2[nH]ccc12 [CP690550] (first compound 0.03 µM, partner dose 5 µM), the cell count was 50.6%.

Compound `N#CC[C@H](C1CCCC1)n1cc(-c2ncnc3[nH]ccc23)cn1` [ruxolitinib] + O=c1[nH]nc(Sc2ncc([N+](=O)[O-])s2)n1-c1ccc2c(c1)OCCO2 [BI78D3] (first compound 5 µM, partner dose 1 µM) showed a cell count of 91.7%.

`N#CC[C@H](C1CCCC1)n1cc(-c2ncnc3[nH]ccc23)cn1` [ruxolitinib] + OCCn1cc(-c2cnc3nnn(Cc4ccc5ncccc5c4)c3n2)cn1 [PF04217903] (first compound 5 µM, partner dose 5 µM) returned a cell count of 104%.

Turning to `CC[C@]1(O)C[C@H]2CN(CCc3c([nH]c4ccccc34)[C@@](C(=O)OC)(c3cc4c(cc3OC)N(C=O)[C@H]3[C@@](O)(C(=O)OC)[C@H](OC(C)=O)[C@]5(CC)C=CCN6CC[C@]43[C@@H]65)C2)C1` [vincristine] + O=C(CCCCCCC(=O)Nc1ccccc1)NO [vorinostat] (first compound 0.0005 µM, partner dose 0.4 µM), the cell count was found to be 58.6%.

`N#CC[C@H](C1CCCC1)n1cc(-c2ncnc3[nH]ccc23)cn1` [ruxolitinib] + O=C1NC(=O)/C(=C/c2ccc(-c3ccc(F)cc3O)o2)S1 [AS252424] (first compound 5 µM, partner dose 5 µM): the cell count stood at 97.3%.

`CC[C@]1(O)C[C@H]2CN(CCc3c([nH]c4ccccc34)[C@@](C(=O)OC)(c3cc4c(cc3OC)N(C=O)[C@H]3[C@@](O)(C(=O)OC)[C@H](OC(C)=O)[C@]5(CC)C=CCN6CC[C@]43[C@@H]65)C2)C1` [vincristine] + O=C1NC(=O)/C(=C/c2ccc(-c3ccc(F)cc3O)o2)S1 [AS252424] (first compound 0.0005 µM, partner dose 5 µM): the cell count stood at 33%.

`N#CC[C@H](C1CCCC1)n1cc(-c2ncnc3[nH]ccc23)cn1` [ruxolitinib] + C[C@@H](Oc1cc(-c2cnn(C3CCNCC3)c2)cnc1N)c1c(Cl)ccc(F)c1Cl [Crizotinib] (first compound 5 µM, partner dose 1 µM) showed a cell count of 84%.

In turn, `Cc1cc(Nc2cc(N3CCN(C)CC3)nc(Sc3ccc(NC(=O)C4CC4)cc3)n2)n[nH]1` [Tozasertib] + NCC(=O)Nc1ccc(-n2nc(C(F)(F)F)cc2-c2ccc3c(ccc4ccccc43)c2)cc1 [OSU03012] (first compound 0.03 µM, partner dose 5 µM) came in with a cell count of 66.8%.

For the compound `Cc1cc(Nc2cc(N3CCN(C)CC3)nc(Sc3ccc(NC(=O)C4CC4)cc3)n2)n[nH]1` [Tozasertib] + Cc1cc([N+](=O)[O-])ccc1NS(=O)(=O)c1cc(Cl)ccc1Cl [FH535] (first compound 0.03 µM, partner dose 5 µM), the cell count was 60.3%.

`N#CC[C@H](C1CCCC1)n1cc(-c2ncnc3[nH]ccc23)cn1` [ruxolitinib] + CCN(CC)CCCCNc1ncc2cc(-c3cc(OC)cc(OC)c3)c(NC(=O)NC(C)(C)C)nc2n1 [PD173074] (first compound 5 µM, partner dose 0.5 µM) came in with a cell count of 98.4%.

On to `CC[C@]1(O)C[C@H]2CN(CCc3c([nH]c4ccccc34)[C@@](C(=O)OC)(c3cc4c(cc3OC)N(C=O)[C@H]3[C@@](O)(C(=O)OC)[C@H](OC(C)=O)[C@]5(CC)C=CCN6CC[C@]43[C@@H]65)C2)C1` [vincristine] + NCC(=O)Nc1ccc(-n2nc(C(F)(F)F)cc2-c2ccc3c(ccc4ccccc43)c2)cc1 [OSU03012] (first compound 0.0005 µM, partner dose 5 µM), for which the cell count turned out to be 99.4%.

Compound `N#CC[C@H](C1CCCC1)n1cc(-c2ncnc3[nH]ccc23)cn1` [ruxolitinib] + Cc1nc(Nc2ncc(C(=O)Nc3c(C)cccc3Cl)s2)cc(N2CCN(CCO)CC2)n1 [dasatanib] (first compound 5 µM, partner dose 0.02 µM) displayed a cell count of 71.5%.

As to `CC[C@]1(O)C[C@H]2CN(CCc3c([nH]c4ccccc34)[C@@](C(=O)OC)(c3cc4c(cc3OC)N(C=O)[C@H]3[C@@](O)(C(=O)OC)[C@H](OC(C)=O)[C@]5(CC)C=CCN6CC[C@]43[C@@H]65)C2)C1` [vincristine] + O=C(O)c1ccc(-c2c[nH]c3ncc(-c4ccccc4)cc23)cc1C1CCCC1 [GSK650394] (first compound 0.0005 µM, partner dose 0.8 µM), the cell count turned out to be 84.6%.
